Experimental data: the supplement of paper PMC9446081
The campaign covered roughly 39,000 compounds. About 220 (0.56%) showed activity. Some of the results follow.

The molecules below were run on Escherichia coli K-12 BW25113 (assay: relative growth (OD600 normalised to plate interquartile mean) (fraction); higher = less growth inhibition, active = 0.2 or less). Settings: 50 µM; LB; incubation time: overnight (16-24 h).
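Also: static incubation at 37 °C against the wild-type strain, values averaged over two biological replicates.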

Question: How did the relative growth turn out when `C[C@@H]1CN([C@@H](C)CO)C(=O)c2cc(NC(=O)Nc3ccc4c(c3)OCO4)ccc2O[C@@H]1CN(C)Cc1ccc(C(=O)Nc2ccccc2N)cc1` was run?
Answer: inactive: 0.97

Question: How did the relative growth turn out when `Cc1noc(C)c1NC(=O)Nc1ccc2c(c1)CC(=O)N([C@H](C)CO)C[C@@H](C)[C@@H](CN(C)Cc1ccc(Cl)c(Cl)c1)O2` was run?
Answer: inactive: 0.986

Question: With `C[C@@H]1CCCCO[C@@H](CN(C)C(=O)C2CCCCC2)[C@@H](C)CN([C@@H](C)CO)C(=O)c2cc(NC(=O)Nc3ccccc3)ccc2O1` as the molecule, how does the relative growth read?
Answer: inactive: 0.971

Question: With `C[C@H](CO)N1C[C@H](C)[C@@H](CN(C)C(=O)c2ccccn2)Oc2cc(C#Cc3ccccc3)ccc2S1(=O)=O` as the molecule, how does the relative growth read?
Answer: inactive: 1.03

Question: For `CCCNC(=O)N1C[C@H](C)[C@H](OC)CN(C)C(=O)c2cc(NS(=O)(=O)CC(F)(F)F)ccc2OC[C@H]1C`, which relative growth is on record?
Answer: inactive: 0.995

Question: How did the relative growth turn out when `Cc1ccc(S(=O)(=O)N(C)C[C@H]2OCCCC[C@@H](C)Oc3ccc(NC(=O)Nc4c(C)noc4C)cc3C(=O)N([C@H](C)CO)C[C@H]2C)cc1` was run?
Answer: inactive: 0.972

Question: How did the relative growth turn out when `CC(C)NC(=O)N(C)C[C@@H]1Oc2ccc(NC(=O)Cn3cnnn3)cc2C(=O)N([C@H](C)CO)C[C@@H]1C` was run?
Answer: inactive: 1

Question: `COc1cc(C(=O)OCCN2CCN(CCOC(=O)c3cc(OC)c(OC)c(OC)c3)CC2)cc(OC)c1OC` was tested. Which relative growth did it give?
Answer: inactive: 1.04

Question: For `C[C@@H]1CCCCO[C@H](CN(C)C(=O)Nc2ccc(F)cc2)[C@H](C)CN([C@@H](C)CO)C(=O)c2cc(NC(=O)Nc3cccc4ccccc34)ccc2O1`, which relative growth is on record?
Answer: inactive: 1.02

Question: Which relative growth does the source give for `CC(C)CC#Cc1ccc2c(c1)O[C@@H](CN(C)C(=O)NC1CCCC1)[C@H](C)CN([C@@H](C)CO)S2(=O)=O` here?
Answer: inactive: 1.04

Question: `NC(=S)c1ccc(-n2cncn2)nc1` was tested. Which relative growth did it give?
Answer: inactive: 0.99

Question: For `COc1ccccc1S(=O)(=O)N[C@H]1C=C[C@@H](CC(=O)N2CCN(C)CC2)O[C@@H]1CO`, which relative growth is on record?
Answer: inactive: 1.01

Question: With `C[C@@H]1CCCCO[C@@H](CN(C)C(=O)Nc2ccc(F)cc2)[C@H](C)CN([C@H](C)CO)C(=O)c2cc(NC(=O)NC3CCCCC3)ccc2O1` as the molecule, how does the relative growth read?
Answer: inactive: 0.988

Question: With `O=C(CN1CCOCC1)N[C@H]1CC[C@H](CCNC(=O)C2CCCCC2)O[C@H]1CO` as the molecule, how does the relative growth read?
Answer: inactive: 1.02

Question: For `C[C@@H]1CCCCO[C@@H](CN(C)Cc2ccc(C(F)(F)F)cc2)[C@H](C)CN([C@H](C)CO)C(=O)c2cc(NC(=O)c3ccccc3)ccc2O1`, which relative growth is on record?
Answer: inactive: 1.03

Question: With `COC(=O)[C@@H]1[C@H](C(=O)O)[C@@]2(C(=O)Nc3ccc(C#Cc4ccc(OC)cc4)cc32)[C@@H](c2ccccc2)N1C` as the molecule, how does the relative growth read?
Answer: inactive: 0.998
